# Results as given in ChEMBL document CHEMBL4888484, “Replenishing the malaria drug discovery pipeline: Screening and hit evaluation of the MMV Hit Generation Library 1 (HGL1) against asexual blood stage Plasmodium falciparum ,using a nano luciferase reporter read-out” (2022).
# About 540 (0.36%) of roughly 150,000 compounds showed an effect of 50% or more. The list shows a part of the results.
# Tested on: Plasmodium falciparum
# Assay: Primary screen in NF54 nanoGlo assay, in single point, at 2uM, 72h; a lower Z score goes with more inhibition
# Assay type: functional, Erythrocyte
# Settings: timepoint 72 hour
SMILES,% Inhibition [%],Z score
O=C(c1cccc2c1CCOC2)N1CCC[C@H](n2ccnn2)C1,5,-0.84
COCCN1C(=O)[C@H]2C(C(=O)Nc3ccc(Cl)cc3)[C@H]3C=C[C@@]2(O3)C1C(=O)NC1CCCC(C)C1C (stereo not given in full),0,0
CCOC(=O)N1CCC(NC(=O)c2ccoc2)CC1,-15,2.28
O=C(O)c1cccc(NC(=O)c2ccc(O)cc2)c1,4,-0.54
Cc1cnc(-c2cccnc2)n1CC1CN(C(=O)CCC2CCCC2)C1,-2,0.31
CC(C)c1ccoc1-c1noc(C[C@H]2CNC[C@@H]2C)n1,-2,0.28
Cc1noc(C(C)C)c1C(=O)N(C)C1CCN(c2ccccn2)CC1,-3,0.42
O=C(OCc1nc(-c2ccccc2)no1)c1ccccn1,-4,0.6
Cc1c(C2=NOC3(CCC(C(C)C)CC3)N2)c(=O)[nH]c(=O)n1C (stereo not given),-1,0.08
Cc1c(C(=O)O)nn(-c2cccc(F)c2)c1Oc1ccc(NC(=O)C2CCCC2)cc1S(=O)(=O)NC1CC1,-12,1.11
CCN(CC)Cc1cc2ccccc2c2c1COC2,28,-3.15
CCc1ccnc(C(=O)Nc2ccc(CN(C)C)cn2)c1,-1,0.18
Cn1nccc1[C@@H](NCc1cc(Cl)cs1)C(=O)O,-11,2.03
O=C1CCc2c1cccc2C(=O)N1C[C@H](CO)C[C@H](CO)C1,-6,0.96
CO[C@@H]1CCC[C@@H]2CN(S(=O)(=O)c3ccccc3)C[C@@H]21,30,-2.94
CNC(=O)CCN(C)C(=O)c1ccc2c(c1)n(CC1CC1)c(=O)n2C1CCCCC1,-11,2.2
Cc1ccc(C(=O)Nc2ccsc2-c2nnc(C(C)C)o2)cc1,-8,0.77
Cc1cccc(Cc2nnc(CCC(=O)NCc3cc(C)n(C)n3)o2)c1,-20,2.24
O=C(COC[C@H]1CCCO1)NC1CCN(Cc2ccccc2)CC1,-2,0.45
NC(=O)c1c(NC(=O)c2cccnc2)sc2c1CCCCC2,1,-0.08
Cc1cccc(NS(=O)(=O)N2CCC3(CCCCC3)CC2)c1C(N)=O,-11,1.56
O=C(COc1ccccc1)N1CC(C(=O)N2CCN(c3ccccc3F)CC2)CC(c2ccccc2)C1 (stereo not given),-7,1.24
COCC(C)C(=O)N1CCNC(=O)CC1c1ccccc1 (stereo not given),-20,1.81
N#CCc1ccc(OC(F)(F)F)cc1,-9,1.39
CC1c2cccn2CCN1CC(=O)N(C1CCCC1)C1CCS(=O)(=O)C1 (stereo not given),-7,0.64
O=C(NCc1ccnc(NC2CC2)c1)c1ncccc1Br,-14,2.58
CC(C)(C)c1csc(N=C2CCCN2)n1,-4,0.41
CCn1ccc(C(=O)NC[C@](O)(CC)CCCO)cc1=O,-11,1.16

SMILES,% Inhibition [%],Z score
O=C(NCCn1cccn1)c1cccc(S(=O)(=O)N2CCCOCC2)c1,-8,1.48
C[C@@H]1OC2(CCN(CCOCC(F)F)CC2)NC1=O,-1,0.12
CCc1nnc2n1CCC1(CC2)CCN(C(=O)Cc2cccc(F)c2)CC1,-18,1.74
COc1c(C)cnc(COc2nc(C)no2)c1C,0,0.03
CC1=NNC(=O)[C@H]1CCNC(=O)C1(c2cc(F)cc(F)c2)CCCC1,-14,1.82
C[C@H]1CCCN(c2nn(CC(=O)Nc3ccc(F)cc3)c(=O)c3ccccc23)C1,-6,0.91
O=c1[nH]c(Cn2cc(Br)cn2)nc2cccc(F)c12,2,-0.2
O=C1[C@@H]2CCCN2C(=O)CN1CCS(=O)(=O)c1ccccc1,0,-0.05
COCCOc1cccc(CNC[C@H]2CC(C(N)=O)=NO2)c1,5,-0.63
CN(C[C@H]1COc2ccccc2O1)C(=O)c1cc(Cl)sc1S(N)(=O)=O,-2,0.43
CC(C)c1nnc([C@H](C)NC(=O)Cc2ccc(O)c(Cl)c2)o1,-3,0.44
Cc1nc2ccc(NC(=O)C3C4CCC(O4)C3C(F)(F)F)cn2n1 (stereo not given),-4,0.48
CC(C(=O)N(C)C(C)c1cnn(C)c1)c1ccc(Cl)s1 (stereo not given),-7,0.93
Cc1cc(=O)cc(C(=O)N[C@@H]2COCC[C@@H]2OCC2CCC2)n1C,-9,1.61
CCCN1CCCN(Cc2ccn(-c3ccccc3)n2)CC1=O,-11,1.51
Cc1ccc(F)cc1-c1nnc(NC(=O)N2C3CCC2COC3)s1,-12,1.19
CC1(C)CN(S(=O)(=O)c2cc(Cl)c(N)c(Cl)c2)CC[S@@+]1[O-],-1,0.11
O=C(CCNC(=O)C1CCCC1)Nc1ccc(F)cc1,-12,2.22
OC1CC2CCC(C1)N2c1cnc2ccccc2n1 (stereo not given),-9,1.05
CC(CCOc1ccccc1)C(=O)N1CCCC1C(N)=O (stereo not given),-15,1.31
Nc1cccc(C(=O)NC[C@H]2CCN(Cc3cc(F)cc(F)c3)C2)c1,10,-1.21
Cc1ccc2[nH]c(C(=O)N3CCOC[C@@H](CN(C)C)C3)nc2c1,-11,1.59
CCS(=O)(=O)N1CCN(Cc2ccc3c(c2)CCO3)CC1,5,-0.77
O=C(N[C@@H](Cc1ccccc1)C(=O)N1CCCCC1)N1CCOCC1,6,-0.77
O=C1c2ccccc2C(=O)N1CCCCS(=O)(=O)N1CC[C@]2(CCOC2)C1,-4,0.49
OC[C@@H]1CCCCN1Cc1cc(F)cc(F)c1,-9,1.33
C[C@@]1(C(N)=O)CCCCN1Cc1csc(-c2cccs2)n1,-3,0.34
